Some of the results follow. Values were computed here from the reads of four pooled replicates and scatter widely.
These sequences were tested against T1, Pho4 (S. cerevisiae) (UniProt P07270) (assay: relative binding free energy (BET-seq); higher = weaker binding). Details: reference: library average.
T1 sequence: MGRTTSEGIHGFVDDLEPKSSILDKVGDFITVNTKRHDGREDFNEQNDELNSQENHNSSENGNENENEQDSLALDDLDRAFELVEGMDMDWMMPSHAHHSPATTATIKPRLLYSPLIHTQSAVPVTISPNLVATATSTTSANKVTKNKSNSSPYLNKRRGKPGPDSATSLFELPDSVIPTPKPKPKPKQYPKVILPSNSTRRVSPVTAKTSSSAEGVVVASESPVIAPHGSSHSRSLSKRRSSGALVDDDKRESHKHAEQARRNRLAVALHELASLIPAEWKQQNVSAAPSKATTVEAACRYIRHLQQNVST

Relative binding free energy, -0.23 kcal/mol:
AGGGCCACGTGTGTGT

Relative binding free energy, -0.11 kcal/mol:
GGAGGCACGTGTTTGC
AGAGGCACGTGGCGAA
GAGGGCACGTGTGCGC
TCGGGCACGTGTGGTC

Relative binding free energy, -0.24 kcal/mol:
TAAGGCACGTGGTGTT

Relative binding free energy, 0.11 kcal/mol:
CGTAACACGTGTGATG
AAGGTCACGTGTGCTG
GGGTCCACGTGGGCAA

Relative binding free energy, 0.01 kcal/mol:
GCGAGCACGTGTGGTT
GAGAACACGTGTTGTG
GTAGTCACGTGGGAAA

Relative binding free energy, 0.12 kcal/mol:
CTAATCACGTGTGGTA
GGTGTCACGTGGAGAT
CTTTACACGTGTTATG
ATTAACACGTGACTTT
AAGTTCACGTGGAGAT
TGTGACACGTGTGGTG

Relative binding free energy, 0.14 kcal/mol:
TGGTACACGTGGAGAG
TTGGACACGTGTTTAA
TTTATCACGTGGTTCT
GCCTGCACGTGAGTGG
GTGTTCACGTGGGTCT

Relative binding free energy, -0.14 kcal/mol:
GAGAACACGTGGGGTG
TGGGGCACGTGCTTGG

Relative binding free energy, -0.21 kcal/mol:
TTAAACACGTGGGCGT
CAGGCCACGTGGGCGT
ACGTGCACGTGGGTCT

Relative binding free energy, 0.51 kcal/mol:
GCATTCACGTGAGTAT

Relative binding free energy, -0.33 kcal/mol:
GGCAGCACGTGGGCTG
TATAACACGTGGGTGA

Relative binding free energy, 0.34 kcal/mol:
GTTTTCACGTGTCCGT

Relative binding free energy, -0.12 kcal/mol:
GAGTACACGTGGGGTC
TGAAGCACGTGTAGGC
TGTGCCACGTGTGGGT

Relative binding free energy, -0.32 kcal/mol:
TCGGGCACGTGGTCTG

Relative binding free energy, -0.01 kcal/mol:
CTCGGCACGTGATGGG
AGGGGCACGTGTAGTC
AGTTGCACGTGTGTGC
GGAGGCACGTGATTCG
ATGTGCACGTGTGGGA
AGGGTCACGTGGTACA
AGGGTCACGTGGCTAG

Relative binding free energy, 0.35 kcal/mol:
TAATTCACGTGATTGC

Relative binding free energy, 0.27 kcal/mol:
ATTATCACGTGTGTAA
AATTTCACGTGTCTGG
GAAGTCACGTGATTGG

Relative binding free energy, -0.35 kcal/mol:
TACGCCACGTGGGGTG

Relative binding free energy, -0.17 kcal/mol:
AGAACCACGTGGGTGT
CGTGCCACGTGGTATG

Relative binding free energy, -0.05 kcal/mol:
TGTGACACGTGGGCCA
AAGGCCACGTGTATGT
TAATGCACGTGTGTGA
AGTAACACGTGGTGAT
TAGTGCACGTGGTAAG

Relative binding free energy, -0.13 kcal/mol:
AATGCCACGTGGTTGT
AGTGCCACGTGTGATG
CGTGTCACGTGTATGT
ATCTGCACGTGGGGAG
GTGGGCACGTGGCGGT

Relative binding free energy, -0.07 kcal/mol:
TATGGCACGTGGAGCT
TAAGGCACGTGTTGGT
AATTGCACGTGCGGGT
AGTGGCACGTGGAAGG

Relative binding free energy, 0.42 kcal/mol:
GGGATCACGTGAGGAG
TGATTCACGTGCGAGA

Relative binding free energy, -0.08 kcal/mol:
TGAATCACGTGGTCGG
CGTGACACGTGGGATG
TTATGCACGTGCTGTA
TAGTGCACGTGTCTTT

Relative binding free energy, 0.13 kcal/mol:
GAGAGCACGTGATTTT
GGACGCACGTGGAAGT
TATATCACGTGTAAGG
ATACTCACGTGTGTTT
TGAGTCACGTGTTACT
TAGTACACGTGATTGG

Relative binding free energy, 0.03 kcal/mol:
CGGTACACGTGGTTGG
TTGTACACGTGTTTGT
TTGGACACGTGTGCGG
ATGGCCACGTGTTTAG
ATTGACACGTGGTGGA

Relative binding free energy, 0.26 kcal/mol:
CCTTTCACGTGGGCGT
CTATACACGTGATGGG
TTTTTCACGTGCTTCT

Relative binding free energy, -0.06 kcal/mol:
TATGTCACGTGGTCGA
TCGGTCACGTGCGTGT
AGAGGCACGTGGAGTT
GGGAACACGTGGTCTG
ATGGTCACGTGGCGGT
CTTACCACGTGGGTTT

Relative binding free energy, -0.02 kcal/mol:
TAGGACACGTGTGTGA
TTTGACACGTGGAGCT
TCTTGCACGTGGTGTC
TGGTGCACGTGTTATG

Relative binding free energy, -0.1 kcal/mol:
GTATGCACGTGCGGGA
ATGAGCACGTGGGTCG
TAGAACACGTGCGTGG
ATAGGCACGTGTGGCT
ATGGGCACGTGTTAGT
GGTGGCACGTGGTGAA

Relative binding free energy, 0.05 kcal/mol:
GTTATCACGTGGTCAG
TGTTGCACGTGTTGGA
AGTATCACGTGTTTGT

Relative binding free energy, 0.06 kcal/mol:
AAAGGCACGTGAGCTG
GTTGGCACGTGAAAAG
ATTGTCACGTGGATCG

Relative binding free energy, 0.25 kcal/mol:
GTGCTCACGTGGTGGT

Relative binding free energy, 0.08 kcal/mol:
GGGTACACGTGTGGCG
CTTGACACGTGTTATG
GAGAGCACGTGTAGAG
AATTACACGTGTTAGG
GCGGTCACGTGTGGGT

Relative binding free energy, -0.2 kcal/mol:
GGTCGCACGTGGTGAT
TGAGACACGTGGGGCA

Relative binding free energy, 0.18 kcal/mol:
AGGGTCACGTGGTAAT
TGAGGCACGTGAAGCT
CTAGTCACGTGGCTTT

Relative binding free energy, 0.15 kcal/mol:
AGATTCACGTGGCAGG
GGTTACACGTGGTGGA

Relative binding free energy, -0.3 kcal/mol:
AGACGCACGTGGGATG
ATTGCCACGTGGGGGA

Relative binding free energy, 0.07 kcal/mol:
AATGACACGTGGGATT
GTCTACACGTGTTGGG
TGAATCACGTGGGTCT
GTATACACGTGGATGG
GTAGACACGTGTAGTA

Relative binding free energy, -0.25 kcal/mol:
CTAGGCACGTGGGCGT

Relative binding free energy, 0.23 kcal/mol:
CGGTGCACGTGAAGAT
GGGTGCACGTGATAAG
TCATTCACGTGATAGT
AGTTCCACGTGATTTT

Relative binding free energy, -0.19 kcal/mol:
GTAGGCACGTGCGTTG
TTAGGCACGTGGTACT
GTCGGCACGTGGGAGA
TGTGGCACGTGGGATA
TGATGCACGTGGGGTG

Relative binding free energy, -0.04 kcal/mol:
AATGCCACGTGAGGGG
TAAGTCACGTGGCGTG

Relative binding free energy, -0.09 kcal/mol:
TTGGGCACGTGCGATG
GATTGCACGTGGGCGG
AGCTGCACGTGGATTT

Relative binding free energy, 0.31 kcal/mol:
TTATACACGTGAGTAG
TGGAACACGTGAGTTT
TACCTCACGTGTGGGT

Relative binding free energy, 0.29 kcal/mol:
AGGTTCACGTGAATGG
GTTGTCACGTGAGTTA
CGATTCACGTGTAGTG
GTGAGCACGTGAGATA
GTGGTCACGTGAGGCT

Relative binding free energy, 0.21 kcal/mol:
TGATTCACGTGCGCGG
TGAGTCACGTGTTGGT
AGGTACACGTGATCTG
GCTTTCACGTGTGTGA

Relative binding free energy, 0.1 kcal/mol:
AAGTTCACGTGGGTAA
AGGTCCACGTGTCTGG
GGCTGCACGTGTGAGG
AATTGCACGTGTAGGA
TGATACACGTGTTTGG
ATATACACGTGTAAAG
TTACTCACGTGTTCGT

Relative binding free energy, -0.27 kcal/mol:
GAACGCACGTGGGGGG
TTTGGCACGTGCTAGT
TCGAGCACGTGGGTAT

Relative binding free energy, 0.32 kcal/mol:
TGCATCACGTGAGGTA
TGAGACACGTGAGTTG
TATTTCACGTGAGAAG

Relative binding free energy, 0.43 kcal/mol:
CGATTCACGTGGATTT

Relative binding free energy, -0.18 kcal/mol:
AGTGGCACGTGCGTGT
TCGCACACGTGGGGTT

Relative binding free energy, 0.24 kcal/mol:
GAGGTCACGTGTGGAA
TGTTGCACGTGAATTC

Relative binding free energy, 0.19 kcal/mol:
TCTTACACGTGTTGTA
TTTTCCACGTGAGTCG
TTTGGCACGTGAGCCG
GGAGGCACGTGAAGTA
AGTGTCACGTGAGGGC
AAAGTCACGTGGTAGC

Relative binding free energy, -0.03 kcal/mol:
ATTAACACGTGTATAT
CTGGGCACGTGTAATG
GTTCGCACGTGGATGT
CGGGTCACGTGGTGAA

Relative binding free energy, 0.3 kcal/mol:
TGGATCACGTGGATTT
TTTCTCACGTGGTGGT

Relative binding free energy, 0.09 kcal/mol:
GGGAACACGTGGATGT
ATGTTCACGTGTCGAG
GTGAGCACGTGTATGG

Relative binding free energy, 0.38 kcal/mol:
GCTGTCACGTGTGAAT
AAATTCACGTGAGTAT
CTTGTCACGTGAGTGT

Relative binding free energy, -0.15 kcal/mol:
CTTGGCACGTGTGGCA
TTCGGCACGTGGTTTC
GGCGACACGTGGCGGG

Relative binding free energy, 0.45 kcal/mol:
GGATTCACGTGGAATA
TCATTCACGTGAGTGG

Relative binding free energy, 0.04 kcal/mol:
CGTGGCACGTGGAGAG
GGGAACACGTGGAGCG
TTGAACACGTGTATTG
TATGTCACGTGTGGCC
GGGTCCACGTGGTTGA
AGGTCCACGTGTGTGA

Relative binding free energy, 0.41 kcal/mol:
CTTGACACGTGAGATA

Relative binding free energy, 0.28 kcal/mol:
ACGTTCACGTGATGGA
CTGGTCACGTGACAGT

Relative binding free energy, 0.16 kcal/mol:
TCGATCACGTGGTTGT
AGGTGCACGTGATTCG
ATGGTCACGTGTTGTC
TTTTTCACGTGGGCCT

Relative binding free energy, 0.22 kcal/mol:
TGTCTCACGTGTTTTT
TCTATCACGTGTGGCG
GTGTTCACGTGCGTCT
TGAATCACGTGGACGG

Relative binding free energy, 0.17 kcal/mol:
AGGGTCACGTGTTGAA
ATAGTCACGTGTTGAG
TTATTCACGTGGTATC

Relative binding free energy, 0.02 kcal/mol:
TGCTACACGTGGGATG
TTGAGCACGTGTAAGG
ATGCGCACGTGAGTTT
GGTTGCACGTGCAGGT
GGAGTCACGTGGTTTA
GGGTACACGTGGCGTA
TAATCCACGTGTATGT
ATAGTCACGTGTCTGT
ATGGTCACGTGGGCAC
TAAGACACGTGATAGT
TGGGACACGTGGTTGG

Relative binding free energy, -0.16 kcal/mol:
TAATACACGTGGGGTC

Relative binding free energy, 0 kcal/mol:
TTATCCACGTGGTTTG
TAATACACGTGTTTTG
GGGGACACGTGGTAGT
TATGCCACGTGCGTGG

— the BET-seq Pho4 binding data (Le et al. 2018)
